Laboratory results from the antibiotic and cytotoxicity screens of Wong et al. (2023).
The list shows a part of the results.

Each molecule was assayed on HepG2 (assay: cytotoxicity call (relative viability < 0.9)). Details: 10 µM.

| SMILES | cytotoxicity call |
| --- | --- |
| C[C@H](CO)N1C[C@H](C)[C@@H](CN(C)Cc2ccc(C(F)(F)F)cc2)Oc2c(NC(=O)c3nc4ccccc4s3)cccc2C1=O | inactive |
| COc1ccc(CNC(=O)c2cc3c(c(-c4cccc(-c5cccc(C#N)c5)c4)n2)[C@@H](CCO)N([S@](=O)C(C)(C)C)C3)cc1 | inactive |
| Cc1noc(C)c1S(=O)(=O)Nc1ccc2c(c1)C(=O)N([C@@H](C)CO)C[C@H](C)[C@@H](CN(C)Cc1ccc3c(c1)OCO3)O2 | inactive |
| CC12CCC(CC1)C(C)(C)O2 | inactive |
| CN1CCN(C)[C@@H](CO)C1 | inactive |
| C/C=C/c1cnc2c(c1)C(=O)N([C@@H](C)CO)C[C@H](C)[C@H](CN(C)S(=O)(=O)c1ccc(OC)cc1)O2 | inactive |
| C[C@H]1CN([C@@H](C)CO)C(=O)Cc2cc(NC(=O)NC3CCCCC3)ccc2O[C@H]1CN(C)S(=O)(=O)c1cn(C)cn1 | inactive |
| C[C@@H]1CCCCO[C@H](CN(C)Cc2ccccc2)[C@H](C)CN([C@H](C)CO)C(=O)c2cc(NC(=O)Nc3ccc(F)cc3)ccc2O1 | inactive |
| CC(C)(C)NC(=O)[C@@H]1C[C@@H]2CCCC[C@@H]2CN1C[C@@H](O)[C@H](Cc1ccccc1)NC(=O)[C@H](CC(N)=O)NC(=O)c1ccc2ccccc2n1 | inactive |
| Cc1occc1CN | inactive |
| O=C(C[C@@H]1CC[C@@H]2[C@H](COC[C@@H](O)CN2C(=O)c2ccccc2)O1)N1CCOCC1 | inactive |
| Cn1c(=O)c2c(ncn2CC(=O)N2CCN(c3ccccc3F)CC2)n(C)c1=O | inactive |
| COc1ccc(S(=O)(=O)Nc2cccc3c2O[C@H](CN(C)Cc2ccc(Cl)c(Cl)c2)[C@H](C)CN([C@H](C)CO)C3=O)cc1 | inactive |
